These are yes or no findings as the source states them, for the method shown. For some of these results: Binding seen in cells or lysates may run through a third protein. Some binding calls cover weakened binding; strength is not graded here. For some of these results: Tags and fused reporters may be left off the sequences shown.
Key:
[1] = molecular target: calcium and calmodulin-dependent protein kinase (CCaMK) (M. truncatula) (UniProt Q6RET7); assay: yeast three-hybrid; BD and AD fusions with a third protein from pBridge; liquid beta-galactosidase assay; 0.005 mM Met in the selection medium
[2] = molecular target: CCaMK-S-tag (M. truncatula) (UniProt Q6RET7); assay: co-IP; three proteins co-expressed in E. coli Rosetta; anti-S-tag antibody and Protein A agarose; 150 mM NaCl, 50 mM Tris-HCl pH 7.5, 0.1% Triton X-100; blot with anti-HIS
IPD3 (M. truncatula) = molecular target: T1, IPD3 (M. truncatula) (UniProt A7TUE1); assay: two-hybrid; yeast AH109, pGBKT7GW and pGADT7GW fusions; growth on SD/-Leu-Trp-Ade-His with 30 or 60 mM 3AT
T1 sequence: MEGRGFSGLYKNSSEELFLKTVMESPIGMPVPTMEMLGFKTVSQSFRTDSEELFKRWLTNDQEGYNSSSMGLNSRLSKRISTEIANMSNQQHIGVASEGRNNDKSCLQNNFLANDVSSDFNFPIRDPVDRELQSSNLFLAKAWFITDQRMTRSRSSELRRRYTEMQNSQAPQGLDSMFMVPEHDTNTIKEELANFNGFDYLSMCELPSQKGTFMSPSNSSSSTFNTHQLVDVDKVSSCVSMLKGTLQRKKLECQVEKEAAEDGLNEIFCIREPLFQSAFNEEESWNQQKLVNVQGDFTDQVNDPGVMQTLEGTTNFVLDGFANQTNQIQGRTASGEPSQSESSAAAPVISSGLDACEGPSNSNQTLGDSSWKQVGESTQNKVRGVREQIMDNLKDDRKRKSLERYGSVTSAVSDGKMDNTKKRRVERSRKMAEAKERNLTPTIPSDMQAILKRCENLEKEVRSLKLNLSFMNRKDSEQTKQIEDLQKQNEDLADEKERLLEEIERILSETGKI

Amino acid sequences for entries named in this document (tags omitted).
UniProt Q6RET7: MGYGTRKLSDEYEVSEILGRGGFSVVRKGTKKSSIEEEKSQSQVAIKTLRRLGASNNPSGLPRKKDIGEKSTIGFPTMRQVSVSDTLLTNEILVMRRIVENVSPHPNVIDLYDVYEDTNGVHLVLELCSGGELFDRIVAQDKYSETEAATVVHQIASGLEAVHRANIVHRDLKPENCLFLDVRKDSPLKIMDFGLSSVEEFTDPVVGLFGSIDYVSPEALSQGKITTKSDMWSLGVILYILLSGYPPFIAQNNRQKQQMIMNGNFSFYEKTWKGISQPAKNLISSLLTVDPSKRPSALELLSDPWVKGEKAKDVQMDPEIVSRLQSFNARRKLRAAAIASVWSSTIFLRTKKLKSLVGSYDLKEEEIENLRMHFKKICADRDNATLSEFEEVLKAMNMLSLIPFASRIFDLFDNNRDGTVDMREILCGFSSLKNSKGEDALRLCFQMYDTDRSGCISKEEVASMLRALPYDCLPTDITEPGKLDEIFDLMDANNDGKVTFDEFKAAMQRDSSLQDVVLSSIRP
UniProt Q5NE24: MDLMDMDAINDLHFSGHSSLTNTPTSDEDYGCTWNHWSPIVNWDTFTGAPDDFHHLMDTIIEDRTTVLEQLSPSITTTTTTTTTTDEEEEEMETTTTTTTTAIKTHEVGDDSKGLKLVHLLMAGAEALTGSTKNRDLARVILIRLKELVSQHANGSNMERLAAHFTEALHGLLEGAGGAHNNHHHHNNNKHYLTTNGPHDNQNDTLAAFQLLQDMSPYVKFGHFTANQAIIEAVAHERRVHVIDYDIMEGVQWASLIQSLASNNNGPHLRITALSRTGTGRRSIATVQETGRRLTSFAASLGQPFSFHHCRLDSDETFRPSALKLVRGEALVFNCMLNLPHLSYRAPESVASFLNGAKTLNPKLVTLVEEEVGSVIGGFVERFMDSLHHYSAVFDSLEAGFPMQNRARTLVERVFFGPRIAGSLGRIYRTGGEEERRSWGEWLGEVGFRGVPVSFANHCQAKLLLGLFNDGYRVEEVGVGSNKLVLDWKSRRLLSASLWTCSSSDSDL

NSP2 (M. truncatula) = NSP2 (M. truncatula) (UniProt Q5NE24); assay: as above
[3] = molecular target: calcium and calmodulin-dependent protein kinase (CCaMK) (M. truncatula) (UniProt Q6RET7); assay: as above
[4] = molecular target: T2, IPD3-cYFP (M. truncatula) (UniProt A7TUE1); assay: split reporter; BiFC with nYFP and cYFP fusions in Arabidopsis mesophyll protoplasts; confocal microscopy
T2 sequence: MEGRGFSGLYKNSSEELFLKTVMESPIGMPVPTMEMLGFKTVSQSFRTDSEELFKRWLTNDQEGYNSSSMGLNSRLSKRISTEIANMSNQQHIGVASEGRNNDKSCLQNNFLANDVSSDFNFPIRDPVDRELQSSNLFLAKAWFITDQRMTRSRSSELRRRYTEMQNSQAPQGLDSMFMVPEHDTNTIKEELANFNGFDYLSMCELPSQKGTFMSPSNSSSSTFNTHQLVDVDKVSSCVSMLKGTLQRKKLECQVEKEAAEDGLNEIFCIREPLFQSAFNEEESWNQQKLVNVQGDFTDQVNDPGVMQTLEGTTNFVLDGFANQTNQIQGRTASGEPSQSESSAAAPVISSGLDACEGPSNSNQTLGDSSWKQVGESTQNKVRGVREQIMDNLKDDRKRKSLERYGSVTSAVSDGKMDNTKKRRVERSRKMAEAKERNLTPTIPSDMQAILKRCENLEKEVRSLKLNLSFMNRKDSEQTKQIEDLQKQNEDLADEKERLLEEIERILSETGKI

[5] = molecular target: NSP2-cYFP (M. truncatula) (UniProt Q5NE24); assay: as above
[6] = molecular target: Flag-tagged NSP2 (M. truncatula) (UniProt Q5NE24); assay: co-IP; Flag-NSP2, Myc-DELLA and HA-IPD3 co-expressed in N. benthamiana leaves (also without MtDELLA); anti-flag M2 agarose; 50 mM Tris-HCl pH 7.5, 150 mM NaCl, 1 mM EDTA, 0.2% Triton X-100; 4 °C

B1: IPD3 (protein, UniProt A7TUE1 1-513)
chain: MEGRGFSGLYKNSSEELFLKTVMESPIGMPVPTMEMLGFKTVSQSFRTDSEELFKRWLTNDQEGYNSSSMGLNSRLSKRISTEIANMSNQQHIGVASEGRNNDKSCLQNNFLANDVSSDFNFPIRDPVDRELQSSNLFLAKAWFITDQRMTRSRSSELRRRYTEMQNSQAPQGLDSMFMVPEHDTNTIKEELANFNGFDYLSMCELPSQKGTFMSPSNSSSSTFNTHQLVDVDKVSSCVSMLKGTLQRKKLECQVEKEAAEDGLNEIFCIREPLFQSAFNEEESWNQQKLVNVQGDFTDQVNDPGVMQTLEGTTNFVLDGFANQTNQIQGRTASGEPSQSESSAAAPVISSGLDACEGPSNSNQTLGDSSWKQVGESTQNKVRGVREQIMDNLKDDRKRKSLERYGSVTSAVSDGKMDNTKKRRVERSRKMAEAKERNLTPTIPSDMQAILKRCENLEKEVRSLKLNLSFMNRKDSEQTKQIEDLQKQNEDLADEKERLLEEIERILSETGKI
- binding [1]: binds

B2: HIS-IPD3 (protein, UniProt A7TUE1 1-513)
chain: MEGRGFSGLYKNSSEELFLKTVMESPIGMPVPTMEMLGFKTVSQSFRTDSEELFKRWLTNDQEGYNSSSMGLNSRLSKRISTEIANMSNQQHIGVASEGRNNDKSCLQNNFLANDVSSDFNFPIRDPVDRELQSSNLFLAKAWFITDQRMTRSRSSELRRRYTEMQNSQAPQGLDSMFMVPEHDTNTIKEELANFNGFDYLSMCELPSQKGTFMSPSNSSSSTFNTHQLVDVDKVSSCVSMLKGTLQRKKLECQVEKEAAEDGLNEIFCIREPLFQSAFNEEESWNQQKLVNVQGDFTDQVNDPGVMQTLEGTTNFVLDGFANQTNQIQGRTASGEPSQSESSAAAPVISSGLDACEGPSNSNQTLGDSSWKQVGESTQNKVRGVREQIMDNLKDDRKRKSLERYGSVTSAVSDGKMDNTKKRRVERSRKMAEAKERNLTPTIPSDMQAILKRCENLEKEVRSLKLNLSFMNRKDSEQTKQIEDLQKQNEDLADEKERLLEEIERILSETGKI
- binding [2]: binds

B3: MtDELLA1 (protein, UniProt A0A396IUP1 1-594)
chain: MKREHQESFGGGVISNNNKTNTNHLNSSKNINFGECSSMQNTNTKQNMWREEKETNGGGMDELLAALGYKVRSSDMADVAQKLEQLEMVMGSAQEEGINHLSSDTVHYDPTDLYSWVQTMLTELNPDSSQINDPLASLGSSSEILNNTFNDDSEYDLSAIPGMAAYPPQEENTAAKRMKTWSEPESEPAVVMSPPPAVENTRPVVLVDTQETGVRLVHTLMACAEAIQQKNLKLAEALVKHISLLASLQTGAMRKVASYFAQALARRIYGNPEETIDSSFSEILHMHFYESSPYLKFAHFTANQAILEAFAGAGRVHVIDFGLKQGMQWPALMQALALRPGGPPTFRLTGIGPPQADNTDALQQVGWKLAQLAQTIGVQFEFRGFVCNSIADLDPNMLEIRPGEAVAVNSVFELHTMLARPGSVEKVLNTVKKINPKIVTIVEQEANHNGPVFVDRFTEALHYYSSLFDSLEGSNSSSNNSNSNSTGLGSPSQDLLMSEIYLGKQICNVVAYEGVDRVERHETLTQWRSRMGSAGFEPVHLGSNAFKQASTLLALFAGGDGYRVEENNGCLMLGWHTRSLIATSAWKLPQNESK
- binding (IPD3 (M. truncatula)): binds
- binding (NSP2 (M. truncatula)): binds
- binding [3]: no binding

B4: MtDELLA1-nYFP (protein, UniProt A0A396IUP1 1-594)
chain: MKREHQESFGGGVISNNNKTNTNHLNSSKNINFGECSSMQNTNTKQNMWREEKETNGGGMDELLAALGYKVRSSDMADVAQKLEQLEMVMGSAQEEGINHLSSDTVHYDPTDLYSWVQTMLTELNPDSSQINDPLASLGSSSEILNNTFNDDSEYDLSAIPGMAAYPPQEENTAAKRMKTWSEPESEPAVVMSPPPAVENTRPVVLVDTQETGVRLVHTLMACAEAIQQKNLKLAEALVKHISLLASLQTGAMRKVASYFAQALARRIYGNPEETIDSSFSEILHMHFYESSPYLKFAHFTANQAILEAFAGAGRVHVIDFGLKQGMQWPALMQALALRPGGPPTFRLTGIGPPQADNTDALQQVGWKLAQLAQTIGVQFEFRGFVCNSIADLDPNMLEIRPGEAVAVNSVFELHTMLARPGSVEKVLNTVKKINPKIVTIVEQEANHNGPVFVDRFTEALHYYSSLFDSLEGSNSSSNNSNSNSTGLGSPSQDLLMSEIYLGKQICNVVAYEGVDRVERHETLTQWRSRMGSAGFEPVHLGSNAFKQASTLLALFAGGDGYRVEENNGCLMLGWHTRSLIATSAWKLPQNESK
- binding [4]: binds
- binding [5]: binds

B5: MtDELLA2 (protein, UniProt A0A396GMX6 1-533)
chain: MKREHKLEHEDMSSGSGKSGVCWEDDGGGMDELLAVVGYKVKSSDMAEVAQKLEQLEQAMMGNNFHDHDESTIAQHLSNDTVHYNPSDISNWLQTMLSNFDPQPNNPSVNSDDNDLNAIPGKAIYAADEFTSRKRVKRNESVTVTTESTTTRPIMVVETQEKGIRLVHSLMACAEAVEQNNLKMAEALVKQIGYLAVSQEGAMRKVATYFAEGLARRIYGVFPQHSVSDSLQIHFYETCPNLKFAHFTANQAILEAFQGKSSVHVIDFSINQGMQWPALMQALALRPGGPPAFRLTGIGPPASDNSDHLQQVGWRLAQFAQTIHVQFEYRGFVANSLADLDASMLELRSPETESVAVNSVFELHKLNARPGALEKVFSVIRQIRPEIVTVVEQEANHNGPAFLDRFTESLHYYSTLFDSLEGSSVEPQDKAMSEVYLGKQICNVVACEGTDRVERHETLNQWRNRFNSAGFSPVHLGSNAFKQASMLLALFAGGDGYKVEENDGCLMLGWHTRPLIATSAWKLAAANSVVVSH
- binding (IPD3 (M. truncatula)): binds
- binding (NSP2 (M. truncatula)): binds
- binding [3]: no binding

B6: MtDELLA2-nYFP (protein, UniProt A0A396GMX6 1-533)
chain: MKREHKLEHEDMSSGSGKSGVCWEDDGGGMDELLAVVGYKVKSSDMAEVAQKLEQLEQAMMGNNFHDHDESTIAQHLSNDTVHYNPSDISNWLQTMLSNFDPQPNNPSVNSDDNDLNAIPGKAIYAADEFTSRKRVKRNESVTVTTESTTTRPIMVVETQEKGIRLVHSLMACAEAVEQNNLKMAEALVKQIGYLAVSQEGAMRKVATYFAEGLARRIYGVFPQHSVSDSLQIHFYETCPNLKFAHFTANQAILEAFQGKSSVHVIDFSINQGMQWPALMQALALRPGGPPAFRLTGIGPPASDNSDHLQQVGWRLAQFAQTIHVQFEYRGFVANSLADLDASMLELRSPETESVAVNSVFELHKLNARPGALEKVFSVIRQIRPEIVTVVEQEANHNGPAFLDRFTESLHYYSTLFDSLEGSSVEPQDKAMSEVYLGKQICNVVACEGTDRVERHETLNQWRNRFNSAGFSPVHLGSNAFKQASMLLALFAGGDGYKVEENDGCLMLGWHTRPLIATSAWKLAAANSVVVSH
- binding [4]: binds
- binding [5]: binds

B7: Myc-tagged DELLA2 (protein, UniProt A0A396GMX6 1-533)
chain: MKREHKLEHEDMSSGSGKSGVCWEDDGGGMDELLAVVGYKVKSSDMAEVAQKLEQLEQAMMGNNFHDHDESTIAQHLSNDTVHYNPSDISNWLQTMLSNFDPQPNNPSVNSDDNDLNAIPGKAIYAADEFTSRKRVKRNESVTVTTESTTTRPIMVVETQEKGIRLVHSLMACAEAVEQNNLKMAEALVKQIGYLAVSQEGAMRKVATYFAEGLARRIYGVFPQHSVSDSLQIHFYETCPNLKFAHFTANQAILEAFQGKSSVHVIDFSINQGMQWPALMQALALRPGGPPAFRLTGIGPPASDNSDHLQQVGWRLAQFAQTIHVQFEYRGFVANSLADLDASMLELRSPETESVAVNSVFELHKLNARPGALEKVFSVIRQIRPEIVTVVEQEANHNGPAFLDRFTESLHYYSTLFDSLEGSSVEPQDKAMSEVYLGKQICNVVACEGTDRVERHETLNQWRNRFNSAGFSPVHLGSNAFKQASMLLALFAGGDGYKVEENDGCLMLGWHTRPLIATSAWKLAAANSVVVSH
- binding [6]: binds

From publication PMC4990646
